About 6,200 (6.6%) of roughly 94,000 compounds were called active. Inconclusive means that the source gave no clear call. Such entries were picked first, then a sample of the others. The call rests on the fitted dose curve; in most records, active means well fitted inhibition curve with a large enough effect; inconclusive means small, poorly fitted or top-dose-only effect; inactive means flat fitted curve, though single readings scatter. A potency beside an inconclusive call is a rough fit, not a confirmed value.
experiment: Cytotoxic Profiling in HEK 293 Cell Line of Diverse Libraries Using Quantitative High-Throughput Screening; conditions: HEK 293 viability, ATP luminescence (CellTiter-Glo), 48-72 h; activity change, negative = cytotoxicity: at 115 µM (top of the series) unless noted; series mostly up to 115 µM; further: nearly all actives have a fitted effect of over 60% in size
In short: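 qHTS cytotoxicity; HEK 293, 250 cells/well; compound pinned; 48 or 72 hr, 37 degree Celsius, 5% CO2, 95% humidity; CellTiter-Glo, 10 min RT; luminescence (ATP).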
On the % scale 0 is the no-effect control and ±100 the full control effect; potency means the concentration at half of the fitted maximal effect; tags describe the fitted curve by direction and shape.

SMILES | activity change, negative = cytotoxicity | Potency
CS(=O)(=O)N1CC(C(=O)NCCc2ccncc2)C2(CCOCC2)C1 (configuration not stated) | inactive: -6.64% | 
COc1ccc(CCc2nc3nccc(-c4cccc(OC)c4)n3n2)cc1 |  | inconclusive: 39.8 µM [inhibitor, partial curve]
CCCCCC(=O)N1CCC(O)(c2csc(CN3CCN(c4ccccn4)CC3)n2)CC1 |  | inconclusive: 89.1 µM [inhibitor, single point]
O=C(c1cn(Cc2ccccc2F)nn1)N1CCC(O)(c2cccc(C(F)(F)F)c2)CC1 |  | inconclusive: 50.1 µM [inhibitor, partial curve, poor fit]
O=C(Cc1ccccc1)N1CCCN(c2ccnc3ccnn23)CC1 |  | inconclusive: 100 µM [inhibitor, partial curve, poor fit]
COc1ccc(-c2noc([C@@H]3CCCN3C(=O)CCCc3ccccc3)n2)cc1OC |  | inconclusive: 89.1 µM [inhibitor, single point]
CCNC(=O)N1CCC(c2nc(-c3cccn3C)no2)CC1 | inactive: -9% | 
COC(=O)CC1CCN(C(=O)C[C@H]2NC(=O)c3ccccc3NC2=O)CC1 | inactive: 7.38% | 
CCN1c2cc(C(=O)Nc3ccc(Cl)cc3)ccc2C(=O)N2CCCCC21 (configuration not stated) |  | inconclusive: 50.1 µM [inhibitor, partial curve, poor fit]
COC(C)(C)C(=O)N1CCc2onc(-c3ccc4c(c3)OCO4)c2C1 |  | inconclusive: 89.1 µM [inhibitor, single point]
NC(=O)[C@@H](Cc1ccccc1)NC(=O)[C@@]1(O)C[C@@H](O)[C@H](O)[C@@H](NS(=O)(=O)c2cccc(C(F)(F)F)c2)C1 | inactive: -3.29% | 
CN(CCc1nc2ccc(Cl)cc2[nH]1)c1cc(C2CC(O)C2)nc(N)n1 (configuration not stated) | inactive: -5.7% | 
Cc1cc(C2CC(C(=O)NCCc3ccccc3)CN(C(=O)C3CC3)C2)ccc1F (configuration not stated) |  | inconclusive: 50.1 µM [inhibitor, partial curve, poor fit]
COCCCn1c(C)cnc1C1CCN(C(=O)c2ccc(C)nc2)C1 (configuration not stated) | inactive: -3.62% | 
C[C@]1(CO)C2CC[C@@H](O)[C@@H](CC(=O)NCc3cccs3)[C@]2(C)CC[C@H]1OC(=O)NC1CCCCC1 (some centres not stated) |  | inconclusive: 79.4 µM [inhibitor, partial curve, poor fit]
COC[C@@H]1CN(S(=O)(=O)c2ccccc2C)C[C@H]1c1ccncc1 |  | inconclusive: 50.1 µM [inhibitor, partial curve, poor fit]
CC1(COCC2CC2)COc2ccc(C(=O)NCc3ccc4c(c3)OCO4)cc2N1 (configuration not stated) |  | inconclusive: 100 µM [inhibitor, partial curve, poor fit]
COc1ccc(C(=O)N2CCC(Cc3nc(C(C)C)no3)CC2)cc1OC |  | inconclusive: 44.7 µM [inhibitor, full curve, poor fit]
CN1CCCN(C(=O)CC2CCCN(c3cnn(C)c(=O)c3)C2)CC1 (configuration not stated) | inactive: -19.2% | 

SMILES | activity change, negative = cytotoxicity | Potency
COc1ccc(C(=O)N[C@H]2C[C@@H](c3nc(-c4ccccc4)no3)N(C)C2)cc1 |  | inconclusive: 100 µM [inhibitor, partial curve]
Cc1cc(CN2CCCCCCn3c(nnc3-c3ccc(F)cc3)CC2)n(C)n1 |  | inconclusive: 31.6 µM [inhibitor, partial curve, poor fit]
O=S(=O)(c1ccccc1)N1CCN(c2ccc3nnc(-c4ccccc4)n3n2)CC1 |  | inconclusive: 89.1 µM [inhibitor, partial curve, poor fit]
Cc1ccc(-c2cnc3n[nH]c(-c4ccccc4)c3n2)cc1 |  | active: 31.6 µM
CN(C)C(=O)c1ccnc2[nH]ccc12 |  | inconclusive: 200 µM [inhibitor, single point]
Cc1nn2c(c1-c1ccccc1Oc1ccccc1)N(C(=O)Cc1cccc(F)c1)CCC2 |  | inconclusive: 50.1 µM [inhibitor, partial curve, poor fit]
COc1cccc(N2CCN(C(=O)C3CC(=O)N(c4n[nH]c5cccc(F)c45)C3)CC2)c1 (configuration not stated) |  | inconclusive: 50.1 µM [inhibitor, partial curve, poor fit]
OCCOc1ccc(CN(CCN2CCCCC2)CC2CCCN(C3CCCC3)C2)cc1 (configuration not stated) |  | inconclusive: 89.1 µM [inhibitor, partial curve, poor fit]
COc1cccc(CC(=O)Nc2ccc3c(c2)CN(Cc2cccc(OC)c2)C(=O)C(C)O3)c1 (configuration not stated) |  | inconclusive: 56.2 µM [inhibitor, partial curve, poor fit]
COc1ccc(Nc2ccnc(N3CCC(C(=O)NCC(F)F)CC3)n2)cc1 |  | inconclusive: 89.1 µM [inhibitor, single point]
O=C1Nc2ccc(-c3ccc4c(c3)OCO4)cc2C(=O)N2CCN(C(=O)NC3CCCCC3)C[C@H]12 |  | inconclusive: 50.1 µM [inhibitor, partial curve, poor fit]
COc1ccc(CCC(=O)N2CCC(Oc3ccc(-c4noc(C)n4)cc3)C2)cc1 (configuration not stated) |  | inconclusive: 50.1 µM [inhibitor, partial curve, poor fit]
O=C(NCc1ccccc1)c1cc2c(s1)CCN(C(=O)c1ccccc1)C2 |  | inconclusive: 50.1 µM [inhibitor, partial curve, poor fit]
COc1ccc(-c2cc(N3CCC(NC(=O)COc4ccccc4C)CC3)n[nH]2)cc1 |  | inconclusive: 14.1 µM [inhibitor, full curve, poor fit]
CN(C)c1cccc(NCc2nc3c(n2Cc2ccccc2)C(=O)N(CCOc2ccccc2)CCN3)c1 |  | inconclusive: 50.1 µM [inhibitor, partial curve, poor fit]
Cc1ccncc1NC(=O)CC1=C2CCCCC2N(Cc2ccc(F)cc2)C1=O (configuration not stated) |  | inconclusive: 79.4 µM [inhibitor, partial curve, poor fit]
COc1cccc(-c2cccc(C(=O)N3CCCC3C(=O)NCCCc3ccccc3)c2)c1 (configuration not stated) |  | inconclusive: 50.1 µM [inhibitor, partial curve, poor fit]
Cc1cccc(NC(=O)N2CCC3(CC2)CC(N(C(=O)c2ccccc2)C2CC2)CCO3)c1 (configuration not stated) |  | inconclusive: 89.1 µM [inhibitor, single point]
